Source: the supplement of paper PMC4967469
A lower IC50 marks a more sensitive line; fits outside the tested doses are given as limits. AUC is the area under the same curve over the 256-fold range up to the top dose, as a fraction; it is 1 without any effect and falls as sensitivity rises. For some of these results: An inferred top dose comes from the curve model; the source does not state it. For some of these results: Drugs with an entry number were screened twice under separate entries, and the two screens often disagree.

Experiments:
Experiment in all cases: Viability of human cancer cell lines after 72 h of drug (GDSC screen)
Tretinoin = compound: CC1=C(/C=C/C(C)=C/C=C/C(C)=C/C(=O)O)C(C)(C)CCC1 [Tretinoin]; settings: top dose 10 µM; top dose inferred
Protocol: (§1)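 Human cancer cell lines in 384-well plates, medium with 10% serum, drug for 72 h over a 256-fold dose range (nine 2-fold or five 4-fold steps up to the top dose). Adherent lines were fixed and stained with the nucleic acid dye Syto60, suspension lines read with resazurin; signal relative to control wells, capped at 0 and 100%. One two-parameter sigmoid per drug and line, fitted in a mixed model over all curves with the slope shared within a line.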

GSK690693 = compound: CCn1c(-c2nonc2N)nc2c(C#CC(C)(C)O)ncc(OC[C@H]3CCCNC3)c21 [GSK690693]; settings: top dose 10.24 µM; top dose inferred
Protocol: as §1

UNC0638 = compound: COc1cc2c(NC3CCN(C(C)C)CC3)nc(C3CCCCC3)nc2cc1OCCCN1CCCC1 [UNC0638]
Protocol: as §1

WH-4-023 = compound: COc1ccc(N(C(=O)Oc2c(C)cccc2C)c2ccnc(Nc3ccc(N4CCN(C)CC4)cc3)n2)c(OC)c1 [WH-4-023]; settings: top dose 5.12 µM; top dose inferred
Protocol: as §1

SB-505124 = compound: Cc1cccc(-c2[nH]c(C(C)(C)C)nc2-c2ccc3c(c2)OCO3)n1 [SB-505124]; settings: top dose 10 µM; top dose inferred
Protocol: as §1

BX-795 = compound: O=C(NCCCNc1nc(Nc2cccc(NC(=O)N3CCCC3)c2)ncc1I)c1cccs1 [BX-795]; settings: top dose 5 µM; top dose inferred
Protocol: as §1

PI-103 = compound: Oc1cccc(-c2nc(N3CCOCC3)c3oc4ncccc4c3n2)c1 [PI-103]; settings: top dose 10.24 µM
Protocol: as §1

[1] = top dose 20 µM, screen: GDSC drug entry 1236, top dose inferred
[2] = top dose 40 µM, screen: GDSC drug entry 245

Cell Line	AUC (Tretinoin)	IC50 (Tretinoin)	AUC (GSK690693)	IC50 (GSK690693)	AUC (UNC0638; [1])	IC50 (UNC0638; [1])	AUC (UNC0638; [2])	IC50 (UNC0638; [2])	AUC (WH-4-023)	IC50 (WH-4-023)	AUC (SB-505124)	IC50 (SB-505124)	AUC (BX-795)	IC50 (BX-795)	AUC (PI-103)	IC50 (PI-103)
COR-L95 (small cell lung carcinoma, adherent)	0.987	> 10 µM	0.897	> 10.2 µM	0.906	> 20 µM	0.603	5.03 µM	0.943	> 5.12 µM	0.943	> 10 µM	0.987	> 5 µM	0.711	2.8 µM
COR-L279 (small cell lung carcinoma, suspension)	0.984	> 10 µM	0.833	5.64 µM	0.82	9.88 µM	0.569	3.77 µM	0.986	> 5.12 µM	0.972	> 10 µM	0.921	> 5 µM	0.165	0.0717 µM
CP66-MEL (melanoma, adherent)	0.986	> 10 µM	0.986	> 10.2 µM	0.91	> 20 µM	0.983	> 40 µM	0.834	4.02 µM	0.983	> 10 µM	0.98	> 5 µM	0.841	8.64 µM
CPC-N (small cell lung carcinoma, suspension)	0.978	> 10 µM	0.88	> 10.2 µM	0.752	7.19 µM	0.557	3.62 µM	0.935	> 5.12 µM	0.889	> 10 µM	0.937	> 5 µM	0.591	1.17 µM
CTB-1 (B-cell lymphoma, suspension)	0.904	> 10 µM	0.646	1.89 µM	0.788	12.5 µM	0.565	4.01 µM	0.842	> 5.12 µM	0.926	> 10 µM	0.846	> 5 µM	0.303	0.145 µM
CTV-1 (acute myeloid leukaemia, suspension)	0.956	> 10 µM	0.928	> 10.2 µM	0.819	8.62 µM	0.701	8.03 µM	0.014	< 0.02 µM	0.981	> 10 µM	0.947	> 5 µM	0.59	1.07 µM
CW-2 (large intestine, adherent)	0.985	> 10 µM	0.942	> 10.2 µM	0.987	> 20 µM	0.905	> 40 µM	0.983	> 5.12 µM	0.988	> 10 µM	0.975	> 5 µM	0.925	> 10.2 µM
Calu-6 (lung adenocarcinoma, adherent)	0.914	> 10 µM	0.984	> 10.2 µM	0.982	> 20 µM	0.821	27.7 µM	0.951	> 5.12 µM	0.959	> 10 µM	0.975	> 5 µM	0.781	4.9 µM
D-247MG (glioma, adherent)	0.947	> 10 µM	0.972	> 10.2 µM	0.81	15.6 µM	0.767	20.4 µM	0.833	> 5.12 µM	0.977	> 10 µM	0.838	> 5 µM	0.117	< 0.04 µM
D-263MG (glioma, adherent)	0.956	> 10 µM	0.983	> 10.2 µM	0.936	> 20 µM	0.968	> 40 µM	0.712	1.46 µM	0.98	> 10 µM	0.773	2.36 µM	0.983	> 10.2 µM
D-283MED (medulloblastoma, adherent)	0.391	0.322 µM	0.991	> 10.2 µM	0.99	> 20 µM	0.991	> 40 µM	0.982	> 5.12 µM	0.981	> 10 µM	0.699	1.07 µM	0.991	> 10.2 µM
D-336MG (glioma, adherent)	0.937	> 10 µM	0.815	7.76 µM	0.822	16.3 µM	0.75	16.4 µM	0.315	0.0831 µM	0.972	> 10 µM	0.829	4.4 µM	0.423	0.372 µM
D-502MG (glioma, adherent)	0.952	> 10 µM	0.945	> 10.2 µM	0.973	> 20 µM	0.824	> 40 µM	0.936	> 5.12 µM	0.945	> 10 µM	0.841	> 5 µM	0.533	0.828 µM
DB (B-cell lymphoma, suspension)	0.958	> 10 µM	0.971	> 10.2 µM	0.731	6.26 µM	0.436	1.64 µM	0.983	> 5.12 µM	0.942	> 10 µM	0.767	2.09 µM	0.765	4.19 µM
DEL (lymphoid neoplasm, suspension)	0.994	> 10 µM	0.954	> 10.2 µM	0.815	8.18 µM	0.516	2.74 µM	0.962	> 5.12 µM	0.959	> 10 µM	0.994	> 5 µM	0.517	0.706 µM
DG-75 (Burkitt lymphoma, suspension)	0.96	> 10 µM	0.987	> 10.2 µM	0.744	6.32 µM	0.795	18.8 µM	0.942	> 5.12 µM	0.945	> 10 µM	0.883	> 5 µM	0.845	7.56 µM
DMS-79 (small cell lung carcinoma, suspension)	0.975	> 10 µM	0.95	> 10.2 µM	0.923	> 20 µM	0.781	19.6 µM	0.941	> 5.12 µM	0.974	> 10 µM	0.979	> 5 µM	0.738	3.48 µM
DMS-114 (small cell lung carcinoma, adherent)	0.977	> 10 µM	0.881	> 10.2 µM	0.798	11.1 µM	0.756	15.6 µM	0.83	3.91 µM	0.956	> 10 µM	0.899	> 5 µM	0.386	0.295 µM
DND-41 (T-cell leukaemia, suspension)	0.986	> 10 µM	0.876	8.16 µM	0.699	4.19 µM	0.426	1.61 µM	0.943	> 5.12 µM	0.98	> 10 µM	0.783	1.85 µM	0.467	0.526 µM
DSH1 (bladder, adherent)	0.977	> 10 µM	0.945	> 10.2 µM	0.988	> 20 µM	0.888	> 40 µM	0.986	> 5.12 µM	0.982	> 10 µM	0.908	> 5 µM	0.726	2.71 µM
DU-4475 (breast, suspension)	0.978	> 10 µM	0.981	> 10.2 µM	0.834	9.81 µM	0.735	10 µM	0.977	> 5.12 µM	0.981	> 10 µM	0.804	1.98 µM	0.726	2.42 µM
Daudi (Burkitt lymphoma, suspension)	0.966	> 10 µM	0.901	> 10.2 µM	0.784	7.37 µM	0.719	9.45 µM	0.595	0.562 µM	0.977	> 10 µM	0.952	> 5 µM	0.199	0.0964 µM
EB2 (Burkitt lymphoma, suspension)	0.988	> 10 µM	0.173	0.0745 µM	0.756	6.27 µM	0.573	3.88 µM	0.95	> 5.12 µM	0.982	> 10 µM	0.989	> 5 µM	0.106	< 0.04 µM
EB-3 (Burkitt lymphoma, suspension)	0.983	> 10 µM	0.945	> 10.2 µM	0.747	7.29 µM	0.712	11.1 µM	0.682	1.13 µM	0.913	> 10 µM	0.984	> 5 µM	0.212	0.0775 µM
EC-GI-10 (oesophagus, adherent)	0.955	> 10 µM	0.989	> 10.2 µM	0.923	> 20 µM	0.979	> 40 µM	0.987	> 5.12 µM	0.987	> 10 µM	0.86	4.12 µM	0.989	> 10.2 µM
EJM (lymphoid neoplasm, semi-adherent)	0.964	> 10 µM	0.951	> 10.2 µM	0.834	10.2 µM	0.679	7.2 µM	0.992	> 5.12 µM	0.987	> 10 µM	0.927	> 5 µM	0.312	0.211 µM
EKVX (lung adenocarcinoma, adherent)	0.844	> 10 µM	0.969	> 10.2 µM	0.965	> 20 µM	0.97	> 40 µM	0.966	> 5.12 µM	0.957	> 10 µM	0.859	> 5 µM	0.763	9.4 µM
EM-2 (chronic myeloid leukaemia, suspension)	0.753	3.75 µM	0.924	> 10.2 µM	0.78	9.33 µM	0.712	10.9 µM	0.109	< 0.02 µM	0.976	> 10 µM	0.761	1.99 µM	0.683	2.24 µM
